Test results published in the supplement of paper PMC11383711.
Some of the results follow. Binding of human antibodies (heavy:light variable regions, tested as scFv in one mRNA-display pool) to influenza hemagglutinin, with or without the stem antibody CR9114 bound first. Score = (mean enrichment − median) / interquartile range of that screen; higher = more enriched, 0 = typical non-binder. Active = above the paper's cut-off per screen: stems 28; unblocked H1 Solomon Islands 5, H1 Michigan 3, H3 5, H5 19, H7 2.85, both B 5; blocked 9, 7, H5 10, H7 10, B Phuket 10, B Lee 11.5. Scores are scaled within each screen and are no affinities; replicates correlate at about 0.6 to 0.9, and antibodies rare in the pool are noisier.

Tests used:
[1] = target: H1 HA stem construct (mini-HA #4900); test: mRNA display binding score; higher = more enriched on the antigen; conditions: antigen blocked with: nothing
Protocol: (§1)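 A pool of natively paired antibodies, displayed as scFv on mRNA, was selected once on antigen-coated beads and sequenced before and after; two replicates.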

[2] = target: H3 HA stem construct (H3ssF); test: as above; conditions: antigen blocked with: nothing
Protocol: as §1

Binder	mRNA display binding score [1]	mRNA display binding score [2]
01.ae.01 (protein) chain 1: QVQLQQWGAGLLKPSEALSLSCAVYGGSFSDYYWNWIRQPPGKGLEWIGEIDNFGSTKYHPSLKSRVTISVDTSKNQFSLKLTSVTAADTAVYYCARVRRPIVAHYYGLDVWGQGTTVTVSS chain 2: DIQMTQSPSSLSASIGDRVTITCRASQGISNYLAWYQQRPGKAPKLVIYAASTLQSGVPSRFSGSGSGTYFTLTISSLQPEDFATYYCQQLNTYPRTFGPGTKVDI	inactive: -0.448	inactive: 0.161
C1-2D03 (protein) chain 1: VQLVESGGGLVKPGGSLRLSCAASGFTFSNAWMSWVRQAPGKGLEWVGRIQSQHEGGTTDYAAPVKGRFTISRDESKNTLYLQMNSLKTEDTAVYYCTTASNPYNWNGPYFDYWGQGTLVTVSS chain 2: DIQMTQSPSTLSASVGDRVTITCRASQSIGTWLAWYQQKPGKAPKLLIYKASSLESGVPSRFSGSRSGTEFTLTISSLQPDDFATYYCQQYNVYSPMYTFGQGTKVEIK	inactive: 0.33	inactive: 0.286
051-10-4G03 (protein) chain 1: EVQLVESGGGLVQPGRSLRLSCTASGFTFGDYAMSWVRQAPGKGLEWVGFIRSKRYGGTTEYAASVKDRFTISRDDSKSIASLQMSSLKRDDTAVYYCTRDLVGATTFFLYGMDVWGQGTTVTVSS chain 2: DIQMTQSPSSVSASIGDRVTITCRASQDVSTWLAWYQQKPGKAPKLLIYTASSLQSGVPSRFSGSGSGTDFTLTISSLQPEDFATYYCQQANSFPLTFGGGTKVEIK	inactive: 0.0141	inactive: 0.964
W85-1E01 (protein) chain 1: EVQLVESGGGLVRPGRSLTLSCATSGFTFGDYGLSWVRQAPGKGLEWVGFIRSKPYGATTEYAASVKGRFTISRDDSKSIAYLQMNSLKIEDTAVYFCGRDPHSGSYLDYWGQGTLVTVSS chain 2: QSALTQPASVSGSPGQSITIFCTGTSSDVGGYNYVSWYQQHPGKAPKVMIYEVNNRPSGVSNRFSGSKSGNTASLTISGLQSEDEADYYCSSYTGSSTYVFGSGTKVTV	inactive: -0.523	inactive: 1.19
W85-1E07 (protein) chain 1: EVQLVESGGGLVQPGGSLRLSCAASGFKVGDNYMSWVRQAPGKGLEWVSIIYGGGRTYYADSVKGRFTLSRDNSKNTLSLQMNSLRGEDTAVYYCARDGVAGGEGAYDIWGQGTMVTVSS chain 2: DIQMTQSPSSLSASVGDRVIITCRASQPISSYLNWYQQKPGKAPNLVIYSASSLQSGVPSRFSGSGSGTDFTLSISNLQPEDFATYYCQQSYSDPYTCGQGTKLEIK	inactive: -0.832	inactive: 0.407
042-10-4C06 (protein) chain 1: EVQLVESGGGLVKPGGSLRLSCEVSGLIFKNAWMTWVRQAPGMGLEWVGRIKSKSEGGTADYGTPVRDRFIISRDDSKNMVYLQMDSLQTEDTAVYYCATIGIDYNSRSGYFSFDYWGQGALVTVSS chain 2: EIVLTQSPDTLSLSPGERATLFCRASQSVGNSLAWYRQKLGQPPRLLIYDASIRATGIPARFTGSGSGTDFTLTISSLEPEDFAVYYCQQRANWAPFTFGRGTKVEIK	inactive: 0.545	inactive: 2.44
014-10-1B04 (protein) chain 1: QLQESGPGLVKPSETLSLTCTVSGGSISGTSYYRVWIRQPPGKGLEWIGSIYYSGSTHYSPSLKSRVTITEDTSKNQFSLKMISVTAADAAVYYCATGPNFEAFDLWGQGTMVTVSS chain 2: QSALTQPRSVSGSPGQSVTISCTGTSSDVGGYNYVSWYQQHPGKAPKLMIYDVSNRPSGVPDRFSGSKSGNTASLTISGLQAEDEADYYCCSYVGSNTFYVIFGGGTKLTVL	inactive: 0.695	inactive: 4.61
AG2-F02 (protein) chain 1: VQLVESGGGVVQPGRSLSLSCAASGFTFSNYAMHWVRQAPGKGLEWIFHISYDSSNRYSADSVKGRFTLSRDNSKNTLSLQMDSLKVEDTAVYYCARGEVINGPLYYFDYWGHGTLVTVSS chain 2: EIVLTQSPATLSLSPGERATLSCRASQSVRYFLAWYQQKPGQAPKLLISDASNRATGIPARFSGSGFGTDFTLTIDNLEPDDSAVYYCQQRSTWAHITFGGGTKVEIK	inactive: 0.328	inactive: -0.601
W85-2F05 (protein) chain 1: EVQLVESGGGVVQPGRSLRLSCAASGFSFSSYAMHWVRQAPGKGLEWVAVISYDGSNKYYADSVKGRFTISRDNSKITLFLQMNSLRPEDTAIYYCARTTDYNVYYSGMDVWGQGTTVTVSS chain 2: QSALTQPASVSGSPGQSITISCTGTSTDIGDYNYVSWYQQHPGRAPKLIIYEVTNRPSGVSNRFSGSKSGYTASLSISGLQAEDEADYYCSSYADGSTPYVFGSATKVT	inactive: -0.173	inactive: 0.392
W85-2F12 (protein) chain 1: QVQLQESGPGLVKPSETLSLTCSVSGGSLSSSTYYWGWIRQPPGKGLEWIGSVYYTGSTDYNPSLRSRVSISIDTSKNQFSLKMSSVTAADTAVFYCARYLQWLAPAPLDCWGQGTLVTVSS chain 2: DIVMTQSPDSLAVSLGERATINCKSSQSVLYSSINKNYLAWYQQKPGQPPKLLIYWASTRESGVPGRFSGSGSGTDFTLTIGSLQAEDVAVYYCQQYYSAPLTFGGGTKVEMK	inactive: -1.21	inactive: 0.5
